In the supplement of paper PMC3334620:
Whole data set: some 33,000 sequences, median “E-score (-0.5 to 0.5)” near -0.01, cut for the highest 2% near 0.26. Some of the results follow.

biological target: Ste12 (UniProt P13574); experiment: PBM E-score (8-mer binding enrichment) (E-score (-0.5 to 0.5)); higher = stronger / more preferred TF binding; most listed sequences are background and not binding sites; details: protein concentration: 200 nM; construct: GST-DNA-binding domain
How it was run: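 Universal all-10-mer Agilent arrays, fresh or stripped once, were converted to double-stranded form by primer extension. GST-tagged yeast transcription factors from PURExpress in vitro transcription/translation, full-length or DNA-binding domain only, were applied at about 100-200 nM and detected with fluorescent anti-GST. After masliner normalisation, the Universal PBM Analysis Suite scored each ungapped eight-base word together with its reverse complement by E-score.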

| Sequence | PBM E-score |
| --- | --- |
| ATGGGCCG | 0.0379 |
| TTAATTAA | 0.245 |
| GACGCATC | -0.101 |
| CCGCTGTA | 0.198 |
| CGCCCACG | -0.0917 |
| CAATCGCA | 0.13 |
| ACGACTCA | -0.118 |
| GGGAAGTA | 0.0203 |
| TCCCCGAA | -0.0273 |
| GGTCCTAA | 0.125 |
| CGCCTAGA | -0.0727 |
| CATAGGCA | -0.216 |
| CAATGGGA | -0.134 |
| ATGGTATC | 0.0174 |
| GTTATTGA | 0.0312 |
| ATGGTGTC | -0.00249 |
| ACGATTCC | -0.00654 |
| AGTATCTA | 0.0936 |
| CCTTAGGC | -0.192 |
| AGTGTGCG | 0.0476 |
| ATTCGTCA | 0.0529 |
| ACCCTGAC | 0.0373 |

| Sequence | PBM E-score |
| --- | --- |
| GGATCTGA | 0.151 |
| GGTGGCTA | -0.232 |
| TCCGCCCA | -0.107 |
| AAATCCCA | 0.0961 |
| CCAACCGC | -0.0325 |
| AAATATGC | -0.0267 |
| GAATGGAC | -0.12 |
| CCGTATTA | 0.0394 |
| TAGGTATA | 0.124 |
| TCCCTTAA | -0.0131 |
| GTTGCAGA | -0.0899 |
| TTCTACAA | 0.202 |
| CCGGGTCC | -0.226 |
| TAATACAA | 0.201 |
| GATTATTA | 0.196 |
| AATTTAGA | 0.0523 |
| AAGATTAT | 0.149 |
| ACAATTAT | 0.212 |
| ATTTGTGG | 0.174 |
| ACCAGACT | -0.151 |
| ACGAAGTG | 0.0265 |
| CCAGTTAC | -0.194 |

| Sequence | PBM E-score |
| --- | --- |
| ATCCCAGG | -0.15 |
| CCTAAAAA | 0.124 |
| TGGCAAAA | 0.173 |
| CTCGTTCA | 0.0116 |
| CTTAAATC | 0.105 |
| TCAAGTAA | 0.112 |
| GCGTTCAA | -0.171 |
| ATAAGCCG | 0.0102 |
| AGGTCATC | -0.297 |
| GCCCCAAC | 0.13 |
| CCCGTCGG | 0.0437 |
| GTTCACTA | -0.13 |
| CAATTGCG | 0.0264 |
| AATGTTCC | 0.00954 |
| ACCGCACG | -0.15 |
| ACTCGCAC | -0.114 |
| ATATAGTG | 0.0803 |
| GAAGAGCC | -0.123 |
| AGTCCGTA | -0.00041 |
| CCCCTATC | -0.139 |
| CAGGAGAC | 8e-05 |
| GCATCCTA | -0.112 |

| Sequence | PBM E-score |
| --- | --- |
| ACATAGCG | -0.133 |
| CTTTGCAC | -0.0246 |
| AAGAGGTC | -0.173 |
| GCCGTTAA | -0.0341 |
| ACAGCCTA | 0.143 |
| ATCAACTG | -0.112 |
| AAAGAGAT | -0.00574 |
| TACAGATA | 0.0167 |
| AATCCTGC | -0.158 |
| CCACCGAC | 0.0147 |
| AAACGATG | 0.0327 |
| TAGCTGCA | -0.103 |
| ATATGGGC | 0.0247 |
| ACAACGGT | -0.14 |
| ACACGGTA | 0.00668 |
| AACACATA | 0.074 |
| GTGCCTGA | -0.181 |
| TCAACAAA | 0.239 |
| TACACCGA | 0.0249 |
| ATATGCCA | 0.0949 |
